Source: the BET-seq Pho4 binding data (Le et al. 2018)
The other results are listed elsewhere or left out. The energies were worked out here from pooled read counts, against the library average; single values are noisy.

Target: T1, Pho4 (S. cerevisiae) (UniProt P07270)
T1 sequence: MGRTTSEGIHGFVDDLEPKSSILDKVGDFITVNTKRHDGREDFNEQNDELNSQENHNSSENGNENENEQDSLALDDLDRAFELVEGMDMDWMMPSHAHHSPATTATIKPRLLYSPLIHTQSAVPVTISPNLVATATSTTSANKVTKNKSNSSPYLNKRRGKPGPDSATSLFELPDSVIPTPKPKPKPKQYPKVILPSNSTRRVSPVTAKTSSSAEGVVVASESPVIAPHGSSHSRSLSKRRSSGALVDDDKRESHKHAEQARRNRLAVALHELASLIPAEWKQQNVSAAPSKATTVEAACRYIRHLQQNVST
Assay: relative binding free energy (BET-seq); higher = weaker binding
Conditions: reference: library average

| Sequence | relative binding free energy [kcal/mol] |
| --- | --- |
| TGTGTCACGTGCGAGA | 0.03 |
| CTGGTCACGTGCTTAG | 0.11 |
| GGGTCCACGTGGGCAG | -0.13 |
| AGTTACACGTGGGGTC | -0.01 |
| ATGTGCACGTGCATAT | -0.14 |
| CTTGACACGTGTGGGC | 0.18 |
| GTGCGCACGTGTCGGG | -0.11 |
| GGAGGCACGTGTGGCT | 0.01 |
| AGATTCACGTGAGGGT | 0.35 |
| GTAGTCACGTGATCTT | 0.22 |
| GTATTCACGTGGCATT | 0.07 |
| TATTGCACGTGGGTTG | -0.12 |
| TAGCTCACGTGTGCGT | 0.14 |
| TGACGCACGTGAATGG | 0.22 |
| AGGATCACGTGTAGGG | 0.21 |
| AGGAACACGTGTGATT | 0.1 |
| CTTTGCACGTGGCTGG | -0.13 |
| TTTTCCACGTGTGCGG | 0.07 |
| GTTATCACGTGGCGTG | 0.07 |
| AATGACACGTGTTGTA | 0.11 |
| TGAGTCACGTGGTTGA | 0.06 |
| TCTAACACGTGTTTTG | -0.1 |
| TATGACACGTGATTAT | 0.06 |

| Sequence | relative binding free energy [kcal/mol] |
| --- | --- |
| TGAGTCACGTGAGTTG | 0.31 |
| GATGGCACGTGTATAT | -0.11 |
| TAGGTCACGTGTAGGT | 0.13 |
| ATGAGCACGTGTGCGG | -0.24 |
| GTGGCCACGTGGCTTT | -0.04 |
| TGAATCACGTGATGAG | 0.27 |
| AATTGCACGTGGGCGT | -0.2 |
| GCGGCCACGTGGGTTT | -0.08 |
| GTGCACACGTGTTGTA | 0.02 |
| TTTCTCACGTGAGATT | 0.48 |
| GTGGGCACGTGTTCTA | -0.17 |
| GTGGACACGTGTGTGG | 0.03 |
| TGGATCACGTGTAGCA | 0.21 |
| TGTATCACGTGTGATT | 0.21 |
| AGTGTCACGTGAATGG | 0.34 |
| GTAAGCACGTGTGGGG | 0.04 |
| TATGGCACGTGCGGAT | -0.11 |
| GTATTCACGTGGAGCG | 0.19 |
| ATGTGCACGTGGTTGG | -0.05 |
| GGGTGCACGTGCGCGC | -0.15 |
| TGTAACACGTGACGGG | 0.08 |
| TTTAACACGTGGGTGG | -0.14 |
| GTGGACACGTGTGGAC | 0.07 |

| Sequence | relative binding free energy [kcal/mol] |
| --- | --- |
| TAATACACGTGGGTGA | -0.16 |
| GGTCACACGTGATTGG | 0.31 |
| GTCAGCACGTGTAGGG | 0.02 |
| TTGGGCACGTGAGTCT | 0.18 |
| TGTGTCACGTGCATAT | 0.21 |
| CGTGCCACGTGGGATT | -0.11 |
| TTTGGCACGTGCAGGG | -0.07 |
| TCTTACACGTGGGGTA | -0.07 |
| TGTGTCACGTGCTATT | -0.01 |
| TTGGCCACGTGTTGTT | -0.04 |
| CGTATCACGTGAAGTG | 0.25 |
| GTTTTCACGTGAAGAA | 0.29 |
| GGTGGCACGTGAGACT | 0.08 |
| ATGAGCACGTGAGGTA | 0.13 |
| GATGACACGTGTTATT | 0.05 |
| ATATGCACGTGTTGGG | -0.07 |
| GTATGCACGTGCGATG | 0.06 |
| CGGTTCACGTGATTCG | 0.49 |
| AGTAGCACGTGGGTTA | -0.15 |
| AGCGGCACGTGGGAGC | -0.12 |
| ATCAGCACGTGTTATG | -0.03 |
| TCTTGCACGTGATTTG | 0.06 |
| ATTGGCACGTGCGTTA | -0.2 |

| Sequence | relative binding free energy [kcal/mol] |
| --- | --- |
| AAGAACACGTGGTGTG | 0.09 |
| GTCTTCACGTGATTTG | 0.46 |
| GGTCGCACGTGTGGTG | -0.03 |
| TCTGGCACGTGACGGT | 0.05 |
| AGGAGCACGTGAGGTC | 0.16 |
| GGGTCCACGTGAGTGG | 0.25 |
| CTGTTCACGTGGAAGG | 0.3 |
| TTGTTCACGTGCAGGG | 0.35 |
| GGCAACACGTGGGATG | -0.11 |
| TTAGACACGTGTTTTT | 0.11 |
| AGTAGCACGTGGGCGC | -0.23 |
| CATTACACGTGAGTGT | 0.2 |
| TGGCGCACGTGGGGGT | -0.18 |
| GTTTTCACGTGAACGG | 0.34 |
| AGGGACACGTGGATAT | 0.11 |
| CAGGTCACGTGGGGAG | 0.01 |
| CGTTGCACGTGATTGG | 0.08 |
| AGGGGCACGTGATTTA | -0.09 |
| TGCGTCACGTGGGCAG | -0.17 |
| TTTTACACGTGAGGAA | 0.3 |
| GGAGTCACGTGGGTGA | -0.06 |
| TGGGCCACGTGATCTG | 0.17 |
| TAAAGCACGTGTGTCG | -0.05 |

| Sequence | relative binding free energy [kcal/mol] |
| --- | --- |
| AGTAGCACGTGGTTGG | -0.15 |
| TTCAGCACGTGCGTTG | -0.07 |
| TTATGCACGTGAGCGG | 0.25 |
| GTGGGCACGTGACTTG | 0.06 |
| ATGTACACGTGCGTTT | 0 |
| TTGATCACGTGGGCTA | 0.01 |
| TGGTTCACGTGGGTTG | 0.2 |
| TAGCGCACGTGGATGG | -0.07 |
| TGATACACGTGATTGT | 0.1 |
| TTAATCACGTGTGGAG | 0.1 |
| TATGACACGTGGTGGG | 0.04 |
| GTTTACACGTGTGTGT | 0.21 |
| GGTTTCACGTGAAAAG | 0.41 |
| GGTAGCACGTGGCAGT | -0.1 |
| GAAGGCACGTGGGCAG | -0.22 |
| GTCTTCACGTGGGGTT | 0.24 |
| CGAAACACGTGGGGGG | -0.06 |
| TAACTCACGTGGGGTA | 0.14 |
| TATAGCACGTGACGTG | 0.11 |
| GGTAGCACGTGTTAAT | 0.03 |
| GAGAGCACGTGGTCGG | -0.13 |
| ACGTTCACGTGTGGAG | 0.2 |
| TATGTCACGTGGCGGT | -0.18 |
